Reference: paper PMC10150487, “m^6A readers ECT2/ECT3/ECT4 enhance mRNA stability through direct recruitment of the poly(A) binding proteins in Arabidopsis” (Genome Biology, 2023)
These are yes or no findings as the source states them, for the method shown. For some of these results: Binding seen in cells or lysates may run through a third protein. Some binding calls cover weakened binding; strength is not graded here. Sequences can lack the tags named with a protein.

Columns and labels:
[1] = biological target: T1, ECT2, yeast two-hybrid fusion used with PAB2 and PAB4 (Arabidopsis thaliana) (UniProt Q9LJE5); assay: two-hybrid; GAL4 yeast two-hybrid, pGBKT7 (BD) and pGADT7 (AD) fusions co-transformed into AH109 cells; growth on triple or quadruple dropout medium (-Leu/-Trp/-Ade/-His)
T1 sequence: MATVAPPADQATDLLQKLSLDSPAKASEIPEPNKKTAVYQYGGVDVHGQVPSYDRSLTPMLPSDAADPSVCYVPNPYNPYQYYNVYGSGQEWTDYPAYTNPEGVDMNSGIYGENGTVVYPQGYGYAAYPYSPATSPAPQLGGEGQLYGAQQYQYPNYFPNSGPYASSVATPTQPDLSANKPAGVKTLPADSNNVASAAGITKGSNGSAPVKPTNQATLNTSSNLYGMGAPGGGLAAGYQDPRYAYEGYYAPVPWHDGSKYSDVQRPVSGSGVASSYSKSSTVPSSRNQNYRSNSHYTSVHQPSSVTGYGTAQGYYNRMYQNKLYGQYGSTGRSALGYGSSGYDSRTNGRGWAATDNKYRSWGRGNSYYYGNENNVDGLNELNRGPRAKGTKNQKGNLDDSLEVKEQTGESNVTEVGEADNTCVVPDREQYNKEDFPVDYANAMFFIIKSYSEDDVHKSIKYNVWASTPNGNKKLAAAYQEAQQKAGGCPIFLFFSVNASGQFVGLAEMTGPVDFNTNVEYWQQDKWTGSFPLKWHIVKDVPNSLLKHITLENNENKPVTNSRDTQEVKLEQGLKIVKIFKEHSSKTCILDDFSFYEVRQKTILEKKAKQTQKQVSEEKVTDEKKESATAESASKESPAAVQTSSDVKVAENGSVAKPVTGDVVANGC

[2] = biological target: T2, ECT2-nYFP (Arabidopsis thaliana) (UniProt Q9LJE5); assay: split reporter; BiFC with split YFP; pairs co-infiltrated with Agrobacterium GV3101 into 4-week-old Nicotiana benthamiana leaves, P19 co-expressed; YFP signal read 48-60 h after infiltration by confocal microscopy
T2 sequence: T1 sequence

[3] = biological target: T3, ECT3-nYFP (Arabidopsis thaliana) (UniProt F4K1Z0); assay: as above
T3 sequence: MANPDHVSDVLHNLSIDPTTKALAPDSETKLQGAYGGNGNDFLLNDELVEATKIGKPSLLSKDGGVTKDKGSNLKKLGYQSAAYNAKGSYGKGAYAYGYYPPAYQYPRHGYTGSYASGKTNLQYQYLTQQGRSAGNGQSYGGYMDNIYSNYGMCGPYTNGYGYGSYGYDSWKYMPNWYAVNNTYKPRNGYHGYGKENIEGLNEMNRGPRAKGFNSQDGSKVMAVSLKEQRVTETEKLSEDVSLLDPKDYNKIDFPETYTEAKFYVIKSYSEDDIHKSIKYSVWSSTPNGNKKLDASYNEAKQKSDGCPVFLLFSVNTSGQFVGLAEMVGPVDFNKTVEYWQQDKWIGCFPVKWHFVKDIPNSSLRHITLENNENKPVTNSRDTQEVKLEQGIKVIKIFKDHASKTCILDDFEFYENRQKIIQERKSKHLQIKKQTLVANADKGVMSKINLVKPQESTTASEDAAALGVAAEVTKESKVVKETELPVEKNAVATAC

[4] = biological target: T4, ECT2-BD (Arabidopsis thaliana) (UniProt Q9LJE5); assay: two-hybrid; GAL4 yeast two-hybrid, pGBKT7 (BD) and pGADT7 (AD) fusions co-transformed into AH109 cells; growth on triple or quadruple dropout medium (-Leu/-Trp/-Ade/-His)
T4 sequence: T1 sequence

[5] = biological target: T5, ECT3-BD (Arabidopsis thaliana) (UniProt F4K1Z0); assay: as above
T5 sequence: T3 sequence

[6] = biological target: T6, GST-tagged full-length ECT2 (Arabidopsis thaliana, UniProt Q9LJE5 1-667); assay: pull-down; GST pull-down: purified MBP-ECT3 and SUMO-ECT4 incubated with GST-ECT2 or GST alone, GST magnetic beads, immunoblot with anti-GST, anti-MBP and anti-SUMO; both purified
T6 construct: also called GST-ECT2; Evolutionarily conserved C-terminal region 2
T6 sequence (looked up): T1 sequence

[7] = biological target: T7, GST-tagged ECT2 fragment with the YTH domain alone (Arabidopsis thaliana) (UniProt Q9LJE5); assay: pull-down; GST pull-down: 100 pmol pre-cleared MBP-PAB2 or MBP-PAB4 mixed with 100 pmol GST or GST-ECT2 (full length or fragments) and glutathione magnetic agarose beads, 2 h at 4 °C, IPP buffer (150 mM NaCl, 0.1% NP-40, 10 mM Tris pH 7.4, 0.5 mM DTT); immunoblot with anti-MBP and anti-GST; both purified
T7 sequence: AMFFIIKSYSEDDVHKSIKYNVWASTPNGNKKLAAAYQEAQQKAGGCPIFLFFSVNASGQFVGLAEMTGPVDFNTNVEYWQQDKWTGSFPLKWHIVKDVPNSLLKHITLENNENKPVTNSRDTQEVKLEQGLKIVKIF

B1: PAB2, yeast two-hybrid fusion (protein, UniProt P42731 1-629)
chain: MAQVQLQGQTPNGSTAAVTSAPATSGGATATQFGNTSLYVGDLDFNVTDSQLFDAFGQMGTVVTVRVCRDLVTRRSLGYGYVNFTNPQDAARAIQELNYIPLYGKPIRVMYSHRDPSVRRSGAGNIFIKNLDESIDHKALHDTFSSFGNIVSCKVAVDSSGQSKGYGFVQYANEESAQKAIEKLNGMLLNDKQVYVGPFLRRQERDSTANKTKFTNVYVKNLAESTTDDDLKNAFGEYGKITSAVVMKDGEGKSKGFGFVNFENADDAARAVESLNGHKFDDKEWYVGRAQKKSERETELRVRYEQNLKEAADKFQSSNLYVKNLDPSISDEKLKEIFSPFGTVTSSKVMRDPNGTSKGSGFVAFATPEEATEAMSQLSGKMIESKPLYVAIAQRKEDRRVRLQAQFSQVRPVAMQPSVGPRMPVYPPGGPGIGQQMFYGQAPPAMIPPQPGYGYQQQLVPGMRPGGGPVPSFFMPMVQPQQQRPGGGRRPGGIQHSQQQNPMMQQQMHPRGRMFRYPQGRGGSGDVPPYDMGNNMPLTIGALASNLSNATPEQQRTMLGEVLYPLVEQVEAESAAKVTGMLLEMDQTEVLHLLESPEALKAKVAEAMDVLRSVAAGGATEQLASLNLS
[1]
  binding: binds

B2: PAB4, yeast two-hybrid fusion (protein, UniProt O22173 1-662)
chain: MAQVQAPSSHSPPPPAVVNDGAATASATPGIGVGGGGDGVTHGALCSLYVGDLDFNVTDSQLYDYFTEVCQVVSVRVCRDAATNTSLGYGYVNYSNTDDAEKAMQKLNYSYLNGKMIRITYSSRDSSARRSGVGNLFVKNLDKSVDNKTLHEAFSGCGTIVSCKVATDHMGQSRGYGFVQFDTEDSAKNAIEKLNGKVLNDKQIFVGPFLRKEERESAADKMKFTNVYVKNLSEATTDDELKTTFGQYGSISSAVVMRDGDGKSRCFGFVNFENPEDAARAVEALNGKKFDDKEWYVGKAQKKSERELELSRRYEQGSSDGGNKFDGLNLYVKNLDDTVTDEKLRELFAEFGTITSCKVMRDPSGTSKGSGFVAFSAASEASRVLNEMNGKMVGGKPLYVALAQRKEERRAKLQAQFSQMRPAFIPGVGPRMPIFTGGAPGLGQQIFYGQGPPPIIPHQPGFGYQPQLVPGMRPAFFGGPMMQPGQQGPRPGGRRSGDGPMRHQHQQPMPYMQPQMMPRGRGYRYPSGGRNMPDGPMPGGMVPVAYDMNVMPYSQPMSAGQLATSLANATPAQQRTLLGESLYPLVDQIESEHAAKVTGMLLEMDQTEVLHLLESPEALNAKVSEALDVLRNVNQPSSQGSEGNKSGSPSDLLASLSINDHL
[1]
  binding: binds

B3: ECT4-cYFP (protein, UniProt A0A1P8AS03 1-605)
chain: MSTVAPPADQAADVLKKLSLDSKSRTLEIPEPTKKTGVYQYGAMDSNGQVPSFDRSLSPMLPSDALDPSVFYVPNVYQQPYYYGYGSDYTGYTNSESVDMTSGAYGENASLVYPQGYGYAAFPYSPATSPAPQLGGDGQLYGAQQYQYPFPLTASSGPFASSVPASTQSKLSTNKAANSASAGIPKGMNGSAPVKPLNQSALYGNSALGGGLAAGYQDPRYSYDGFYTPVSWHDGSNFSDVQRSVSGSGVASSYSKANNNVPATRNQNSSSNSHYTSMYQPASMTGYAAQGYYDRVSPNKSYGQYGSTVRSGMGYGSSGYGSRTNERGWLNTDNKYRSRGRGNSYFYGNENIDGLNELNRGPRAKGTKATEEVSSEEVKKQTFDESNTEETVTCVLPDREECNRDDFPVEYKDAKFFIIKSYSEDDVHKSIKYNVWASTPNGNKKLDAAYQEAQQKSSGCPVFLFFSVNASGQFIGLAEMKGPVDFNKNIEYWQQDKWTGSFPLKWHILKDVPNSLLKHITLEYNENKPVTNSRDTQEVKLEQGLKVVKIFKEHNSKTCILDDFSFYEARQKTILEKKAKQQQSQKQVWEGKTNDEKPGTVDSTM
[2]
  binding: binds
[3]
  binding: binds

B4: ECT3-AD (protein, UniProt F4K1Z0 1-495)
chain: T3 sequence
[4]
  binding: binds

B5: ECT4-AD (protein, UniProt A0A1P8AS03 1-605)
chain: B3 chain
[4]
  binding: binds
[5]
  binding: binds

B6: SUMO-tagged ECT4 (protein, UniProt A0A1P8AS03 1-605)
chain: B3 chain
[6]
  binding: binds

B7: MBP-tagged PAB2 (natural protein, Arabidopsis thaliana, UniProt P42731 1-629, looked up)
chain: B1 chain
notes: also called MBP-PAB2; source: Escherichia coli BL-21 Gold, purified (amylose resin)
[7]
  binding: no binding (tested: 100 pmol each)

B8: MBP-tagged PAB4 (natural protein, Arabidopsis thaliana, UniProt O22173 1-662, looked up)
chain: B2 chain
notes: also called MBP-PAB4; source: Escherichia coli BL-21 Gold, purified (amylose resin)
[7]
  binding: no binding (tested: 100 pmol each)
